This note sets out measurements from US20240343816A1 (INSTITUTE OF HEALTH AND MEDICINE HEFEI COMPREHENSIVE …, published 2024).

For experiment [1], the target named is T1, human-derived IL-6Rα protein (human, UniProt P08887 20-365, limits assumed).
T1 construct: Described only as 'soluble human IL-6Rα protein'; also called h-IL-6Rα; soluble human IL-6Rα protein
T1 sequence (looked up): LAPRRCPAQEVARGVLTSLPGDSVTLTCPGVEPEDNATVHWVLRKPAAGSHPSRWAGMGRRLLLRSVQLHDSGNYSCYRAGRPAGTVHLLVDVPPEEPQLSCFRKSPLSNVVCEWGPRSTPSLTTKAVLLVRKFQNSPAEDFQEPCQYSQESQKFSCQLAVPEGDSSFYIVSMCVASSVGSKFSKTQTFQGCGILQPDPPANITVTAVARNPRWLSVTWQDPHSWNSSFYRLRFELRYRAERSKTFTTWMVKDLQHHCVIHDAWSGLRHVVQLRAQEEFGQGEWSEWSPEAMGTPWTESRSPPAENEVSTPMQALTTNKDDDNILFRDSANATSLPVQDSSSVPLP
The experiment can be described thus: ELISA, h-IL-6Rα coated on the plate, Fc-carrying nanobody titrated, OD450 [A]. The method, then:
(§1) The antigen h-IL-6Rα was coated in an immunoplate, and blocking, primary antibody incubation and secondary antibody incubation were employed, etc. After TMB color reaction and termination of color development by concentrated sulfuric acid, the OD450 value was measured by Microplate Reader to determine whether the antigen binds to the antibody. The detection of antibody binding to the murine-derived antigen m-IL-6Rα was performed in the same way as described above.
For orientation: An ELISA detects its analyte on a solid surface through an enzyme-linked reagent.

Experiment [2] deals with T2, murine-derived IL-6Rα protein (murine, UniProt P22272 20-364, limits assumed).
T2 construct: also called m-IL-6Rα; murine-derived antigen m-IL-6Rα
T2 sequence (looked up): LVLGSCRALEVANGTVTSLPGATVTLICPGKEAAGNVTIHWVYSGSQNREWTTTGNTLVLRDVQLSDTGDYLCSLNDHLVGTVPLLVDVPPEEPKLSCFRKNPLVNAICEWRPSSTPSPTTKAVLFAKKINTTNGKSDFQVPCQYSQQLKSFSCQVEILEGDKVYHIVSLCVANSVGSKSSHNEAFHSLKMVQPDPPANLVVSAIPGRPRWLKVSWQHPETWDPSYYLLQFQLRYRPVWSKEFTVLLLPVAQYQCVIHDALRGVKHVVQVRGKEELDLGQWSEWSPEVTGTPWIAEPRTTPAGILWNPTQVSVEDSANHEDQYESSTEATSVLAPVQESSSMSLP
Kind of experiment: ELISA, m-IL-6Rα coated on the plate, Fc-carrying nanobody titrated, OD450 [B]. How it is done: as §1

B1: 2S3-3D-Fc (Fc fusion)
chain: QLQLVESGGGLVRPGGSLRLSCTIHGVTLDWYAVGWFRQAPGKEREGVSCISSSDGSTYYADSVKGRFTISRDNVKNTMYLQMNSLKPEDTAVYYCAMVFTTAQAMGVPFHDFEYDYWGPGTQVTVS[no letters for human IgG1 Fc]
notes: also called Fc-carrying nanobody; nanobody-Fc
As for B1, the 50% effective concentration (EC50 (read off the curve)) in experiment [1] was about 0.3 nM. Also, the binding result in experiment [2] is “binds”.

Usually EC50 (read off the curve) stands for the concentration giving half of the maximal effect.
